Some of the results follow. At the low end of the ranking the order means little.
These sequences were tested against GST-SBP-SLBP (stem-loop binding protein) (UniProt Q14493) (assay: targeted RNA Bind-n-Seq). Details: RBNS binding buffer: 25 mM Tris pH 7.5, 150 mM KCl, 3 mM MgCl2, 0.1% Tween, 0.5 mg/mL BSA, 1 mM DTT; 27 nM protein, 750 pM RNA pool; temperature not stated; high values mean tight binding.
Work on “GGUCACGUCUCAAUCAACUCCCUCGAGGGGGGGAAAACCCCUUUACCCUCUUUUUCAACAGCUCGCAGUCAAG” yielded a binding signal (log2 fold change) of -0.134. “GGUCACGUCUCAAUCAACUCUUUCUCCAGGGAAAACCCUGGCUUACUCAACAGCUCGCAGUCAAG” was tested, and the binding signal (log2 fold change) was -0.234. For “GGUCACGUCUCAAUCAACUCAACUCCCAGGGAAAACCCUGGCUUAUUCAACAGCUCGCAGUCAAG”, the binding signal (log2 fold change) was -0.0554. With “GGUCACGUCUCAAUCAACUCAGUUUCCAGGGAAAACCCUGGCUUAUUCAACAGCUCGCAGUCAAG” the binding signal (log2 fold change) was 0.221. Sequence “GGUCACGUCUCAAUCAACUCAAUAGAGGGGGGGAAAACCCCUUUACCCUCAAACUCAACAGCUCGCAGUCAAG” has a binding signal (log2 fold change) of 0.319. “GGUCACGUCUCAAUCAACUCAUCCCCCAGGGAAACCCCUGGCAAUUUCAACAGCUCGCAGUCAAG” gave a binding signal (log2 fold change) of -0.148. Work on “GGUCACGUCUCAAUCAACUCAAUCCCCAGGGAAAUCCCUGGUAUUCUCAACAGCUCGCAGUCAAG” yielded a binding signal (log2 fold change) of -0.0545. Work on “GGUCACGUCUCAAUCAACUCAACUUCAGGAGUUUACUCCUGCAUACUCAACAGCUCGCAGUCAAG” yielded a binding signal (log2 fold change) of 0.0462. Work on “GGUCACGUCUCAAUCAACUCAUCUUCCAGGGAAAGCCCUGGCAUUUUCAACAGCUCGCAGUCAAG” yielded a binding signal (log2 fold change) of -0.24. Work on “GGUCACGUCUCAAUCAACUCUUCUCCCAGGGAAACCCCUGGCUAAUUCAACAGCUCGCAGUCAAG” yielded a binding signal (log2 fold change) of -0.24. In the case of “GGUCACGUCUCAAUCAACUCUCAAGAGGGGGGGAAAACCCCUUUACCCUCCAAUUCAACAGCUCGCAGUCAAG”, the binding signal (log2 fold change) is reported as -0.0066. “GGUCACGUCUCAAUCAACUCUUUCCCCAGGGAAAACCCUGGUUAUUUCAACAGCUCGCAGUCAAG” gave a binding signal (log2 fold change) of -0.222. Work on “GGUCACGUCUCAAUCAACUCAAUUCCCAGGGAAAGCCCUGGUUUUUUCAACAGCUCGCAGUCAAG” yielded a binding signal (log2 fold change) of -0.298. In the case of “GGUCACGUCUCAAUCAACUCAGGUCCAGGAGUUUUCUCCUGCAAAUUCAACAGCUCGCAGUCAAG”, the binding signal (log2 fold change) is reported as -0.0771. With “GGUCACGUCUCAAUCAACUCCCACGAGGGGGGGAAAACCCCUUUACCCUCCAAAUCAACAGCUCGCAGUCAAG” the binding signal (log2 fold change) was -0.0397. “GGUCACGUCUCAAUCAACUCAUCGUCCAGGGAAAUCCCUGGUUUUUUCAACAGCUCGCAGUCAAG” gave a binding signal (log2 fold change) of -0.0179. “GGUCACGUCUCAAUCAACUCAAUCGAGGGGGGGAAAACCCCUUUGCCCUCAACAUCAACAGCUCGCAGUCAAG” showed a binding signal (log2 fold change) of -0.0608. “GGUCACGUCUCAAUCAACUCACACGAGGGGGGGAAAACCCCUUUGCCCUCACAUUCAACAGCUCGCAGUCAAG” showed a binding signal (log2 fold change) of -0.0607. “GGUCACGUCUCAAUCAACUCUUCGUCAGGAGUUUACUCCUGCAAUUUCAACAGCUCGCAGUCAAG” was tested, and the binding signal (log2 fold change) was 0.261. “GGUCACGUCUCAAUCAACUCUACUUCCAGGGAAAUCCCUGGCUUACUCAACAGCUCGCAGUCAAG” gave a binding signal (log2 fold change) of -0.0499.
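Further: DESeq read counts versus GST-SBP nonspecific binding control pulldown.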
